{
  "source": "the supplement of paper PMC11417369",
  "note": "The other results are listed elsewhere or left out.",
  "data": [
    {"tested_on": "PfSIP2 AP2 domain 1 (GST-tagged)", "assay": "gcPBM binding intensity (ln(normalized median fluorescence intensity)); higher = stronger DNA binding", "in_short": "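Each value is the highest Masliner-normalised natural-log median intensity across replicate spots of either orientation of a probe. The probes were primer-extended double-stranded 36-bp intergenic genomic sequences on an Agilent 4 × 180k array, alongside negative controls, exposed for 1 h to GST-tagged P. falciparum DNA-binding domains expressed in E. coli. Bound protein was picked up with Alexa488 anti-GST antibody and scanned at 488 nm.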", "values": [
      {"sequence": "TAAGAACTATTCAGTAGTACCTATATGGATTACTAA [XGTACX_site4278]", "gcPBM binding intensity (ln)": 6.57},
      {"sequence": "ATTGATATTGTATAATGTACAGGAAAAAAAAAAAAA [XGTACX_site526]", "gcPBM binding intensity (ln)": 6.91},
      {"sequence": "TTCTTTATTTTTTCTACACACATTATGTATTCAAAG [CACACA_site3527]", "gcPBM binding intensity (ln)": 7.69},
      {"sequence": "TGAAAGAACCTGATTACACACATAAGTTATAAATAT [CACACA_site6165]", "gcPBM binding intensity (ln)": 6.82},
      {"sequence": "AATCTCAGAATATACTGTACTTTAAGAAAAAAAAAA [XGTACX_site110]", "gcPBM binding intensity (ln)": 7.09},
      {"sequence": "AATATATATTTGTGTACACATTATATATATATATAT [CACACA_site6103]", "gcPBM binding intensity (ln)": 9.38},
      {"sequence": "AAAATTTAAATAGGAAGTACGTTCACTAAGAAAATA [XGTACX_site6546]", "gcPBM binding intensity (ln)": 7.05},
      {"sequence": "AAATAAAGATATATATATATATATATATATAATTTT [CACACA_negctrl_site30]", "gcPBM binding intensity (ln)": 7.7},
      {"sequence": "AAAATGTGCATATTTGCACACTTCAATATATATATA [CACACA_site1791]", "gcPBM binding intensity (ln)": 9.19},
      {"sequence": "CATAAATCAGCCATAACACACATACCTATATACATA [CACACA_site6324]", "gcPBM binding intensity (ln)": 7.01},
      {"sequence": "AAATATTTTGCATACACATGCAAATATTTTTTACAT [TGCATGCA_site554]", "gcPBM binding intensity (ln)": 6.87},
      {"sequence": "AATATAAAAAGGCACACACACAAAAAAAAAAAAAAA [CACACA_site896]", "gcPBM binding intensity (ln)": 7.13},
      {"sequence": "ATTTCTAAATGTTGGTGTACGTTTTTTTATAACCTT [XGTACX_site1752]", "gcPBM binding intensity (ln)": 6.88},
      {"sequence": "AATAAATGGAATGTCACACATATATATATATATATA [CACACA_site4869]", "gcPBM binding intensity (ln)": 9.35},
      {"sequence": "ATTATTTAAAAAAAATGTACATAATAAATATGAACG [XGTACX_site4010]", "gcPBM binding intensity (ln)": 6.9},
      {"sequence": "AGTGTATGTATATAAACACACATACATATTTATAAC [CACACA_site6777]", "gcPBM binding intensity (ln)": 6.93},
      {"sequence": "AAAAAAAAGAAAGAAAGTACAAATTATAAAATGAAC [XGTACX_site860]", "gcPBM binding intensity (ln)": 6.75},
      {"sequence": "TAAATTAAAAAACACACACACAAAAAAAAAAAAAAA [CACACA_site2263]", "gcPBM binding intensity (ln)": 6.85},
      {"sequence": "TTGATATTATTGTATAAACATAATAGAGATAAAGAG [TGCATGCA_negctrl_site455]", "gcPBM binding intensity (ln)": 7.62},
      {"sequence": "CAGGTGCACTATATTACACACGCTTCTTTTTTTTTA [CACACA_site2069]", "gcPBM binding intensity (ln)": 12.4},
      {"sequence": "TACAAAAAAATAAATAATAAAAAAAAATATATATAA [XGTACX_negctrl_site344]", "gcPBM binding intensity (ln)": 6.79},
      {"sequence": "TGAAGGATATATTCCGTGCACATATAAATATATACA", "gcPBM binding intensity (ln)": 9.71},
      {"sequence": "AACATGTTAACTAAATGTACACACCTATGTTGATGT [XGTACX_site3777]", "gcPBM binding intensity (ln)": 6.98},
      {"sequence": "GGAAAACACAAAAACTGTACATTTATTCAACATATA [XGTACX_site5831]", "gcPBM binding intensity (ln)": 6.95},
      {"sequence": "TATATACATATATACACACACATATATATATATATA [CACACA_site2805]", "gcPBM binding intensity (ln)": 9.43}
    ]}
  ]
}
